# Results from US20120134993A1 (ZymoGenetics, published 2012).
# T1: recombinant human FGF-8b (human, UniProt P55075-3 23-215)
# T1 sequence (looked up): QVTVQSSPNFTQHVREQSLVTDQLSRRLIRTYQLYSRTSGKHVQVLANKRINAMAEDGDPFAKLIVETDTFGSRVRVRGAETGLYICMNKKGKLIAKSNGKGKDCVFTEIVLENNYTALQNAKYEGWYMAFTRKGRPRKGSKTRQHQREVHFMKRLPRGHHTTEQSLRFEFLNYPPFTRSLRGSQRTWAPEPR
# B1: FGFR2alphaIIIc([…]) Fc5, full-length FGFR2-Fc (A2556F) (Fc fusion)
# chain: not shown
# notes: also called FGFR2 A2556F; construct #1945
# B2: FGFR2alphaIIIc([…])(P253R) Fc5, full-length FGFR2-Fc P253R (A2558F) (Fc fusion)
# chain: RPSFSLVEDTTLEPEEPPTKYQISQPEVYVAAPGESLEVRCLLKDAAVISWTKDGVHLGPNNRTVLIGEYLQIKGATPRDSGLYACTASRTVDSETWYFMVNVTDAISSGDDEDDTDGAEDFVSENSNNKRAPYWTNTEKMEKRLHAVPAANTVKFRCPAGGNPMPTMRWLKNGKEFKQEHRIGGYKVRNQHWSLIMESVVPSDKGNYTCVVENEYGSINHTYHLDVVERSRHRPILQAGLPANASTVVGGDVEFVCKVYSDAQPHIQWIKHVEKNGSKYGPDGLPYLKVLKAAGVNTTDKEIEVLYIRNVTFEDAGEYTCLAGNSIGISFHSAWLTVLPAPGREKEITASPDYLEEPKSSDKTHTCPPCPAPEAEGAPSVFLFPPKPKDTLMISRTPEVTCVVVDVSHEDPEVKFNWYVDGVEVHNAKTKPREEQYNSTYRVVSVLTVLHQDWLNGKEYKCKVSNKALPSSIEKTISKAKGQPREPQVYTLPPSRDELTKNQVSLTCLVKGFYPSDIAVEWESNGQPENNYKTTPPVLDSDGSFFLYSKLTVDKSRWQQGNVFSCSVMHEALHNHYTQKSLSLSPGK
# notes: also called FGFR2 A2558F; construct #1947
# B3: FGFR2alphaIIIc([…])(S252W) Fc5, full-length FGFR2-Fc S252W (A2557F) (Fc fusion)
# chain: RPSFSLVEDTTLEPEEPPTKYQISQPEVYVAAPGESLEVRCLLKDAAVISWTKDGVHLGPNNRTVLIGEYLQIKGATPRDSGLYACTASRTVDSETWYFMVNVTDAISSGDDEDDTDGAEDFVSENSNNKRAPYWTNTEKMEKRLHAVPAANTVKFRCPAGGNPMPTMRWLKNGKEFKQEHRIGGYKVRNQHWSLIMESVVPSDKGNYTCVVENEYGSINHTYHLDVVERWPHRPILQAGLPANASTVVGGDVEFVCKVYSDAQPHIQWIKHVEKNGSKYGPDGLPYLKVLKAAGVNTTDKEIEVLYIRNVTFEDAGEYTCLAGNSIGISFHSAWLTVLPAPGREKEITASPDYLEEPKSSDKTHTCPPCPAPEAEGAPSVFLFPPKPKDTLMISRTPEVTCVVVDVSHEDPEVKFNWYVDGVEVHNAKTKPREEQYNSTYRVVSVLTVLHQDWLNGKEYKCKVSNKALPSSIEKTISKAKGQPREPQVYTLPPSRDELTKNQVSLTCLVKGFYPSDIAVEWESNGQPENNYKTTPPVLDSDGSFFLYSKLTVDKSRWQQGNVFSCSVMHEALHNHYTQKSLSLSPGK
# notes: also called FGFR2 A2557F; construct #1946
# Target: T1, recombinant human FGF-8b
# Assay: ELISA, FGF coated, FGFR-Fc titrated with heparin
# Procedure: To determine the binding capability of FGFR-Fc to their respective ligands, an ELISA was run. Recombinant human FGF-8b or FGF-17 (R&D Systems) was plated at 100 nM on a Nunc Maxisorp 96-well plate for 1 h at room temperature with shaking. The plates were blocked with BLOTTO (Thermo Fisher Scientific, Rockford, Ill.) for 1 h at room temperature, then washed 5 times with ELISA C buffer (137 mM NaCl, 2.7 mM KCl, 7.2 mM Na₂HPO₄, 1.5 mM KH₂PO₄, 0.05% (v/w) polysorbate 20, pH 7.2). FGFR-Fcs were diluted to 100 nM with PBS/0.1×BLOTTO/10 ug/ml porcine heparin (Sigma, St. Louis, Mo.) and then 1:2 serial dilutions were made, ending at 0.10 nM. 100 μL of FGFR-Fcs were plated and incubated at 4° C. overnight. The following day, the plates were washed 5 times with ELISA C and then incubated with 2.5 μg/mL horseradish peroxidase-conjugated anti-human Fc antibody (Jackson ImmunoResearch Laboratories, West Grove, Pa.) for 1 h at room temperature with shaking. After 5 washes with ELISA C, 100 μL of OPD in citrate buffer (5 mg of o-phenylenediamine in 63 mM sodium citrate, 37 mM citric acid, pH 5.0, 0.03% H₂O₂) was added for detection. After 2-5 minutes, the reaction was stopped with 1 N H₂SO₄. The plates were read at 490 nm using SoftMaxPro software.
row,Binder,binding result
1,B1,no binding (tested: 100 nM (highest concentration tested))
2,B2,no binding (tested: 100 nM (highest concentration tested))
3,B3,no binding (tested: 100 nM (highest concentration tested))
